# Among all 1,000 compounds or so, about 360 (36%) were called active.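 The calls were made as follows: active = Fitted curve of melting temperature shift crosses the 1.0 threshold at or below the sample's highest valid tested concentration; inconclusive = Flat fit with activity 30 to 70, or invalid fit; inactive = Opposite direction, flat within 30, or no crossing.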 The list lacks most of the strong results.
# Target: Fibroblast growth factor 22 (Homo sapiens) (UniProt Q9HCT0)
# Assay: FGF22 ligand-induced thermal stabilization – biophysical, thermal shift, cherry-pick, FGF22 synaptogenesis inhibitor project, dose response (AID 687022); also: reference of the scale not given here
# Details: recombinant FGF22 thermal shift, SYPRO orange melting; at 38 µM (top of the series) unless noted
# Sequence of UniProt Q9HCT0 (Q9HCT0 whole entry, looked up): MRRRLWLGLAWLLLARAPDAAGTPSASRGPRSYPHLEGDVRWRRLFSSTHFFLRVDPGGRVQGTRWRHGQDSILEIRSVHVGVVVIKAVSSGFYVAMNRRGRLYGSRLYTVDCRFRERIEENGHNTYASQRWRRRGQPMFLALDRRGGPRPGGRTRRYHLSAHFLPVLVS
row,SMILES,Tm shift activity
1,O=C(Nc1ccsc1C(=O)O)c1cccc(C(F)(F)F)c1,inactive: -0.203%
2,Cc1ccc(C)c(N2CCN(C(=O)C34CC5CC(C3)CC(n3nnc(C)n3)(C5)C4)CC2)c1,inactive: -0.282%
3,OC[C@@H]1[C@H](c2ccc(Br)cc2)[C@@H]2CN(Cc3cncnc3)CCCCN12,inactive: -0.264% [at 42 µM]
4,OC[C@H]1[C@@H](c2ccc(-c3cccnc3)cc2)[C@@H]2CN(Cc3ccccn3)CCCCN12,inactive: -0.15%
5,CC(C)NC(=O)N1C[C@H]2[C@@H](c3ccccc31)[C@H](CO)N2C(=O)c1cccnc1,inactive: 0.104%
6,COc1ccc(S(=O)(=O)N(C)C[C@@H]2Oc3ccc(NC(=O)Nc4ccccc4)cc3CC(=O)N([C@H](C)CO)C[C@@H]2C)cc1,inactive: -0.087% [at 42 µM]
7,CSc1ncccc1C(=O)Nc1ccc(S(=O)(=O)N2CCCC2)cc1,inactive: 0.298%
8,Cc1nc(Oc2ccccc2)c2ccsc2n1,inactive: 0.015%
9,N#C/C(=C\c1ccc(N2CCOCC2)c([N+](=O)[O-])c1)c1nc2ccccc2[nH]1,inactive: 0.123%
10,Cn1c(=O)[nH]c(=O)c2c1nc(SCC(O)CO)n2CCCc1ccccc1 (centres undefined),inactive: -0.205%
11,C[C@@H]1CN([C@H](C)CO)C(=O)c2cc(NS(C)(=O)=O)ccc2O[C@@H](C)CCCCO[C@H]1CN(C)Cc1ccncc1,inactive: -0.062% [at 42 µM]
12,O=C(c1ccccc1)N1CC2(C1)[C@H](c1ccccc1)[C@H](CO)N2Cc1cc(F)ccc1F,inactive: 0.232% [at 42 µM]
13,CC(=O)Nc1ccc2sc(C)nc2c1,inactive: 0.077%
14,COCCN(C(=O)C(C)C)c1nnc(-c2ccc(C(C)(C)C)cc2)s1,inactive: -0.124%
15,Cc1noc(C)c1S(=O)(=O)Nc1ccc2c(c1)CC(=O)N([C@H](C)CO)C[C@@H](C)[C@H](CN(C)S(C)(=O)=O)O2,inactive: 0.04%
16,C/C=C/c1ccc([C@H]2[C@@H](CO)N(CC3CCOCC3)C23CN(C(=O)COC)C3)cc1,inactive: -0.301% [at 42 µM]
17,CO[C@@H]1CN(C)C(=O)c2ccc(NS(=O)(=O)c3ccc(Oc4ccccc4)cc3)cc2OC[C@H](C)NC[C@@H]1C,inactive: -0.378% [at 42 µM]

row,SMILES,Tm shift activity
1,C[C@H]1CN([C@@H](C)CO)C(=O)c2cc(NS(=O)(=O)c3ccccc3)ccc2O[C@@H]1CN(C)C,inactive: -0.047%
2,C[C@@H]1CN([C@@H](C)CO)C(=O)c2cccc(N(C)C)c2O[C@H]1CN(C)Cc1ccc(C(=O)O)cc1,inactive: -0.219% [at 42 µM]
3,CN1CCC(C)(C(=O)Nc2cccc3c2CCCC3)C1 (centres undefined),inactive: -0.072%
4,O=C(C[C@H]1C[C@@H]2c3cc(NC(=O)NC4CCCC4)ccc3O[C@@H]2[C@H](CO)O1)NCc1ccc2c(c1)OCO2,inactive: -0.035%
5,C[C@H]1CN([C@@H](C)CO)C(=O)c2cccc(NC(=O)Nc3ccc4c(c3)OCO4)c2O[C@H]1CN(C)S(=O)(=O)c1cn(C)cn1,inactive: -0.279%
6,O=C(C(=O)N1CCC(CNS(=O)(=O)Cc2ccccc2)CC1)c1cccs1,inactive: -0.203%
7,COc1ccc(S(=O)(=O)Nc2ccc3c(c2)C(=O)N([C@@H](C)CO)C[C@@H](C)[C@@H](CN(C)C)OCCCC[C@@H](C)O3)cc1,inactive: -0.192% [at 42 µM]
8,Cn1cccc1/C=N/NC(=O)Cc1cccc2ccccc12,inactive: -0.271%
9,COc1ccc(CN(C)C[C@H]2Oc3ccc(NC(=O)Cc4ccccc4)cc3C(=O)N([C@@H](C)CO)C[C@H]2C)cc1,inactive: 0.038%
10,O=[N+]([O-])c1ccc2nc(-c3ccc(Cl)cc3)[nH]c2c1,inactive: 0.366%
11,O=C(c1cccc(F)c1)N1C[C@H]2[C@@H](c3ccccc31)[C@@H](CO)N2C(=O)c1ccccn1,inactive: -0.197% [at 42 µM]
12,CC(C)(CNCc1ccccc1)NS(=O)(=O)c1ccc(Cl)cc1,inactive: -0.043%
13,COc1ccc(N2CCN(CCOc3ccc4c(C)cc(=O)oc4c3)CC2)cc1,inactive: -0.063%
14,O=c1ccc2cc(S(=O)(=O)Nc3ccc(Br)cc3)ccc2o1,inactive: 0.009%
15,CCNc1c(NS(=O)(=O)c2ccc(Br)s2)c(=O)oc2ccccc12,inactive: -0.125%
16,CCC(=O)N(NC1=NS(=O)(=O)c2ccccc21)S(=O)(=O)c1ccc(C)cc1,inactive: -0.105%
17,O=C(NCC(=O)N(CC1CCCO1)C(C(=O)NC1CCCCC1)c1cccnc1)c1cccs1 (centres undefined),inactive: 0.189%
